86 compounds from publication PMC4336329 (PLoS ONE, 2015) can be followed below.

The whole screen tested about 310,000 compounds, of which about 14,000 (4.5%) showed an effect of 50% or more. The effect is printed as a negative number. The list shows a part of the results.
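Note: peak tail current of the secondary pulse compared with the same well before compound.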

This assay deals with human ether-à-go-go-related gene (hERG) potassium channel (human, UniProt Q12809). As to the kind of experiment: primary screen, population patch clamp on CHO cells stably expressing hERG.
human ether-à-go-go-related gene (hERG) potassium channel, sequence (Q12809 whole entry, looked up): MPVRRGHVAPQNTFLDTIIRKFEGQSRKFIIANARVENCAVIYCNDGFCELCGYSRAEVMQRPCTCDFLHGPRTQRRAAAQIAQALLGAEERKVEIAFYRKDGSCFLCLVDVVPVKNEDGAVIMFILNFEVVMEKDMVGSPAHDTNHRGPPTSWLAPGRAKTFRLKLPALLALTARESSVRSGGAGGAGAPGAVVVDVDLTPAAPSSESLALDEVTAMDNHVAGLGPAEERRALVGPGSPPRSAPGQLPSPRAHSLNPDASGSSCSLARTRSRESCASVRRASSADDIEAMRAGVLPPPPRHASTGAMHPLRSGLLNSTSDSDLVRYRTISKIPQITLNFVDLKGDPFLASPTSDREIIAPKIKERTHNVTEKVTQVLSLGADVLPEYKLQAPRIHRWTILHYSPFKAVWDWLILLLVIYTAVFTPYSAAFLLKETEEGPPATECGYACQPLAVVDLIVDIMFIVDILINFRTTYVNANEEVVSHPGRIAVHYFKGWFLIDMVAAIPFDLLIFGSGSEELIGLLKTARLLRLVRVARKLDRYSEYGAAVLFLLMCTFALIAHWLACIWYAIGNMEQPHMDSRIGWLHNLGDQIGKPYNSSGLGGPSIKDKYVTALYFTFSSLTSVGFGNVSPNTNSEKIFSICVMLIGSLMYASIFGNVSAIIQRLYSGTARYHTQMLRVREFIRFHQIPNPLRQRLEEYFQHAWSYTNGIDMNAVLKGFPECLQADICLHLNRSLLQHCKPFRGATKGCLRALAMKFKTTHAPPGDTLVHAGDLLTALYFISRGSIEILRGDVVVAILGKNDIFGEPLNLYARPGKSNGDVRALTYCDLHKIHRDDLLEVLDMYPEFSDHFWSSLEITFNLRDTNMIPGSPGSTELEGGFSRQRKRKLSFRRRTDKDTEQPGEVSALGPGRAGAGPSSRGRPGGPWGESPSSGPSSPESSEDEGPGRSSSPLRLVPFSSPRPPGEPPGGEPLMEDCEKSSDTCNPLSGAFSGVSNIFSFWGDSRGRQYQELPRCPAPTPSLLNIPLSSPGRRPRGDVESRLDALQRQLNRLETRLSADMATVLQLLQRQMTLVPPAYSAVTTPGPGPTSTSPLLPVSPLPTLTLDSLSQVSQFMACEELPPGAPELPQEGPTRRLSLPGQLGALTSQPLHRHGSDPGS
As for `CC(C)Cc1nnc(NC(=O)CSc2nc(=O)cc(N)n2-c2ccccc2)s1`, the “hERG current change (%, negative = inhibition) at 10uM” value is -2.71%. For `Cc1ccc(NC(=O)c2ccc(OCc3c(C)noc3C)cc2)c(C)c1` the value was -7.97%; for `Cc1nc(C(=O)N2CCCC(Nc3ccc(C)c(C)c3)C2)cs1` (centres unmarked), 23.5%.

For `CCN(CC)CCOC(=O)/C=C/c1ccccc1.Cl`, the “hERG current change (%, negative = inhibition) at 10uM” value is given as -12.4%. The figure for `Cc1cc(C)c(C#N)c(Oc2ccccc2)n1` is 1.32%; for `COC(=O)C1=C(C)N(Cc2ccccc2)C(=NCc2ccc(OC)cc2)N[C@H]1c1cccc(F)c1` it is 6.76%; for `CC(C)c1ccc2[nH]c3nc(SCC(=O)N4CCOCC4)nnc3c2c1` it is 23.1%.

As for `Cc1ccc(OCC(=O)N2CCC(N3CC(C)CC(C)C3)CC2)cc1` (centres unmarked), the “hERG current change (%, negative = inhibition) at 10uM” value is reported as -45.5%.

`CCCOc1ccc(N2C(=O)CC(SCCc3nc4ccccc4[nH]3)C2=O)cc1` (centres unmarked): the “hERG current change (%, negative = inhibition) at 10uM” value is -23.2%. For `Cc1ccc(S(=O)(=O)N2CCC(C(=O)OCC(=O)N3CCCC3=O)CC2)cc1C` the value was 4.7%; for `COc1ccc(OC)c(/C=C/C(=O)c2ccc(Cl)cc2)c1`, 4.68%. For `Cc1c(/C=N/NC(=O)C(C)(C)Oc2ccc(Cl)cc2)cnn1C` the value was -10.4%; for `O=C(COc1ccccc1)Nc1cc(C(F)(F)F)ccc1N1CCCC1`, 20.3%.

Take `Cc1ccc(C(=O)N2CCN(c3ncnc4c3cnn4-c3ccccc3)CC2)cc1`: the “hERG current change (%, negative = inhibition) at 10uM” value is listed as -0.928%. For `CCC1(c2ccc(F)cc2)NC(=O)N(CC(=O)N2c3ccccc3NC(=O)CC2C)C1=O` (centres unmarked) the value was -58.4%; for `Cc1c(NC(=S)NC(=O)COc2ccccc2)c(=O)n(-c2ccccc2)n1C`, 6.73%. The figure for `COc1ccc(OC)c(-c2nn(-c3ccccc3)cc2C(=O)NCC(c2cccs2)N2CCOCC2)c1` (centres unmarked) is -30.2%; for `Cc1ccsc1CNCCc1ccccc1F` it is -5.57%. Turning to `CCCNC(=O)c1cc(S(=O)(=O)N2CCCCC2)c[nH]1`, the “hERG current change (%, negative = inhibition) at 10uM” value is recorded as 21.4%.

With `Cc1[nH]nc2c1C1(CCN(C(=O)c3ccccc3)CC1)C(C#N)=C(N)O2`, the “hERG current change (%, negative = inhibition) at 10uM” value was -0.805%.

For the compound `O=C(Nc1ccccc1)Nc1cccc2nsnc12`, the “hERG current change (%, negative = inhibition) at 10uM” value is given as -16.9%. For `O=C(O)C(c1ccccc1)C1(O)CCCC1` (centres unmarked), the “hERG current change (%, negative = inhibition) at 10uM” value stood at 5.92%. As for `CC1=C(C(=O)Nc2ccccc2C)C(c2ccc(C)o2)n2c(s/c(=C/c3ccccc3)c2=O)=N1` (centres unmarked), the “hERG current change (%, negative = inhibition) at 10uM” value came to 0.661%. The figure for `Cc1cccc(N2C(=O)NC(=O)/C(=C\c3ccc(N4CCOCC4)cc3)C2=O)c1` is 24.9%; for `CCn1c(SCC(=O)c2ccc3c(c2)Cc2ccccc2-3)nnc1-c1ccc(N)cc1` it is 8.11%; for `Cc1ccc(S(=O)(=O)N2CCC(C(=O)N[C@@H](C)C(=O)Nc3ccc(F)cc3)CC2)cc1` it is -0.951%.

For the compound `CCOC(=O)N1CCN(C(=O)C2CCC(=O)N2C(C)C)CC1` (centres unmarked), the “hERG current change (%, negative = inhibition) at 10uM” value was -2.08%. The figure for `Cc1c(C)n2c(SCC(=O)Nc3ccc4c(c3)OCCO4)nnc2[nH]c1=O` is 4.29%; for `COCCNC(=O)NC(=O)CN1C(=O)NC(Cc2c[nH]c3ccccc23)C1=O` (centres unmarked) it is 15.3%. For `COc1ccc(C2C(C#N)=C(N)Oc3c2c(-c2ccccc2)nn3-c2ccccc2)c(OC)c1OC` (centres unmarked) the value was -1.15%; for `COc1ccc(N2CCN(/C(=N\S(=O)(=O)c3ccccc3)Nc3nc(C)cc(C)n3)CC2)cc1`, -8.79%; for `Cc1cc(/C=C(/C#N)C(=O)Nc2ccc(Cl)cc2)c(C)n1-c1cccnc1`, -67.5%. For `CCOC(=O)C1CCN(CC(C)(C)NS(=O)(=O)c2ccccc2)CC1` the value was 11.5%; for `CC1CN(C(=O)CCC(=O)N2CCOCC2)c2ccccc2O1` (centres unmarked), -12.2%.

Regarding `CCOC(=O)/C(C(N)=NC)=C(\O)c1ccccc1`, the “hERG current change (%, negative = inhibition) at 10uM” value is 1.21%.

`COc1ccccc1Nc1nc(N)nc(CN2CCN(Cc3ccccc3)CC2)n1`: the “hERG current change (%, negative = inhibition) at 10uM” value is -73.2%.

With `Cc1cc(C)c2c(c1)-c1c(ssc1=S)C(C)(C)N2C(=O)CSc1nncn1C`, the “hERG current change (%, negative = inhibition) at 10uM” value is -30.4%. On to `CCCN1CCN(CCCNC(=O)c2cc3c(=O)[nH]c4ccccc4c3s2)CC1`, for which the “hERG current change (%, negative = inhibition) at 10uM” value is -8.3%. For `Cc1[nH]c2ccccc2c1/C=C/C(=O)c1ccccc1` the value was 1.64%; for `O=C(CCn1ccc([N+](=O)[O-])n1)NC1CCCCCC1`, -5.39%. The figure for `N#Cc1c2c(c(NCCOCCO)n3c1nc1ccccc13)CCCC2` is -63.3%; for `O=C1[C@@H]2CSCN2C(=O)CN1Cc1c(F)cccc1Cl` it is 3.59%; for `CCOc1cc(CNCCO)cc(Br)c1OCc1ccccc1Cl.Cl` it is 12.5%. The figure for `O=C(O)/C=C/C(=O)Nc1ccc(OC(F)(F)F)cc1` is 8.3%. `CC(C)CC1NC(=O)N(CC(=O)Nc2cccc(Br)c2)C1=O` (centres unmarked): the “hERG current change (%, negative = inhibition) at 10uM” value is 1.02%.

Consider `CN(Cc1ccccc1)C(=O)c1ccc(NC(=O)Cc2cccc(NC(=O)C3CCCN(C(=O)CCc4ccccc4)C3)c2)cc1` (centres unmarked), for which the “hERG current change (%, negative = inhibition) at 10uM” value is 5.19%.

In the case of `CC(Oc1ccc(F)cc1F)C(=O)/C=C/N(C)C` (centres unmarked), the “hERG current change (%, negative = inhibition) at 10uM” value is reported as -3.08%.

As for `Cc1ccc(-c2csc3ncn(CC(=O)NCC(c4ccco4)N4CCCC4)c(=O)c23)cc1` (centres unmarked), the “hERG current change (%, negative = inhibition) at 10uM” value is given as -39.7%.

`COc1ccc(OCc2csc(N)n2)cc1`: the “hERG current change (%, negative = inhibition) at 10uM” value is on record as 39.4%. The figure for `CN(C)/C=C(\C#N)C(=O)c1cccnc1Oc1ccc(F)cc1F` is -5.93%; for `CCCCNc1ncnc2c1cnn2Cc1ccc(Cl)cc1` it is -2.19%. The figure for `CCCCN(C(=O)CSCc1c(C)noc1C)c1c(N)n(CCC)c(=O)[nH]c1=O` is 15.9%.

With `CCSc1nnc(-c2cccc(S(=O)(=O)N(CC)CC)c2)n1Cc1ccccc1`, the “hERG current change (%, negative = inhibition) at 10uM” value is -62.6%. For `CC(=O)N(C1=C(Cl)C(=O)c2ccccc2C1=O)C1CCCCC1` the value was -10.6%. The figure for `COc1ccc(-c2nnn(CC(=O)N3CCN(c4ccc(F)cc4)CC3)n2)cc1` is -0.297%; for `O=C(Nc1cccc(F)c1)N(Cc1ccc(Cl)cc1)CC(O)C(F)(F)F` (centres unmarked) it is -13.5%; for `CC(C)C(=O)N1CCC2(CC1)Oc1ccc(Cl)cc1C(=O)C21CC(c2ccccc2)=NO1` (centres unmarked) it is -46.4%. Take `S=C(NNC(=S)NC1CC2CCC1C2)NC1CC2C=CC1C2` (centres unmarked): the “hERG current change (%, negative = inhibition) at 10uM” value is reported as 15.1%. The figure for `COc1ccc(NC(=O)Cn2nnc(C(=O)NCc3ccc4c(c3)OCO4)c2N)cc1` is 18.4%; for `COC(=O)C1=C(C)NC(C)=C(C(=O)OC)C1c1ccc(-c2cc(Cl)ccc2Cl)o1` it is 7.34%. The figure for `c1ccc(-c2ccccc2-n2cnnn2)cc1` is -8.42%; for `CN(C)c1ccc(P(=O)(Nc2cccc(C(F)(F)F)c2)N2CCOCC2)c(NC(=O)c2cccs2)c1` (centres unmarked) it is 10.1%; for `CC(C)Oc1cccc(C(=O)NC(=S)Nc2ccccc2N2CCOCC2)c1` it is -6.42%.

As to `Fc1ccc(Sc2nc(-c3ccccc3)nnc2C(F)(F)F)cc1`, the “hERG current change (%, negative = inhibition) at 10uM” value was found to be 21.5%. For `COc1ccccc1COCC(O)CN1CCCCC1CO.O=C(O)C(=O)O` (centres unmarked) the value was 18.6%. For `O=C(COc1cc(Cl)ccc1Cl)Nc1ccc2[nH]c(=O)[nH]c2c1` the value was 12.8%; for `Cc1cc(S(=O)(=O)NCCc2ccccc2)ccc1-n1cnnn1`, -17.1%. Turning to `O=[N+]([O-])c1ccc(S(=O)(=O)N/N=C/c2ccco2)cc1`, the “hERG current change (%, negative = inhibition) at 10uM” value was determined as 7.64%. For `Nc1nc(N)nc(-c2cc(O)ccc2O)n1`, the “hERG current change (%, negative = inhibition) at 10uM” value worked out at 10.3%.

On to `Cc1ccc(C)c(NC(=O)CCC(=O)NNC(=O)c2cccs2)c1`, for which the “hERG current change (%, negative = inhibition) at 10uM” value is recorded as 13.1%. The figure for `O=C(Nc1cc(S(=O)(=O)Nc2ccccc2Cl)ccc1O)c1cc2c(s1)CCCC2` is 24.7%; for `Cn1c(/C=C/N2CCOCC2)c(C(=O)c2ccc(Br)cc2)c(=O)n(C)c1=O` it is -28.8%; for `CCCN1Cc2cccc(C(=O)NCc3ccc(C)cc3)c2C1=O` it is -29.8%. The figure for `COc1cc(CNCc2ccccn2)ccc1OCc1c(Cl)cccc1Cl.Cl` is -51.5%; for `COc1ccc(C2c3ccc(O)cc3Oc3ncn4nc(-c5ccncc5)nc4c32)cc1OC` (centres unmarked) it is 5.39%. The figure for `Cc1c(/C=C/C(=O)c2ccccc2)cnn1C` is -4.99%. `O=C(Nc1cccc(Cl)c1)OC1CN2CCC1CC2` (centres unmarked): the “hERG current change (%, negative = inhibition) at 10uM” value was 29.5%. The figure for `COc1ccccc1N1CCN(Cc2nc3ccccc3[nH]2)CC1` is 1.11%; for `CCOc1ccc2nc(NC(=O)CSc3nnc(-c4ccncc4)n3CC3CCCO3)sc2c1` (centres unmarked) it is 3.71%. For the compound `Cc1nc2sccn2c(=O)c1S(=O)(=O)NC(C)c1ccccc1` (centres unmarked), the “hERG current change (%, negative = inhibition) at 10uM” value is listed as 5.95%.

For the compound `CC(C)(C)C(=O)Nc1ccccc1N1CCN(C(=O)c2ccc(Cl)cc2)CC1`, the “hERG current change (%, negative = inhibition) at 10uM” value is -48.2%. For `Fc1ccccc1Nc1nc(N2CCOCC2)nc(N2CCOCC2)n1` the value was 29.1%; for `N#Cc1ccc(COC(=O)c2ccc(N3CCCC3)c([N+](=O)[O-])c2)cc1`, -23.8%; for `O=C(CN1CCC(NC(=O)Nc2ccccc2)CC1)Nc1cccc([N+](=O)[O-])c1`, -40.6%. The figure for `CC(C)NC(=O)Cn1cc(S(=O)(=O)N2CCCC2)c(S(=O)(=O)N2CCCC2)c1` is 10.9%. For `C[C@H](NC(=O)OCc1ccccc1)c1nnc([C@H](Cc2ccccc2)NC(=O)OC(C)(C)C)o1` the value was -18%.
